# PubChem BioAssay AID652104 (National Center for Advancing Translational Sciences (NCATS), 2013)
# “And” between values parts separate entries of the source, which are not always exact repeats. Equal entries are not always repeated. Hit rate of the full screen: of about 410,000 compounds, about 7,200 (1.8%) were called active. The inconclusive results got no clear call from the source; some entries with a clear call stand among them for comparison. Calls come from the whole dose curve; as a rule, active = well fitted activation curve with a large enough effect; inconclusive = small, poorly fitted or top-dose-only effect, or another doubt; inactive = no such curve, though single readings can be large or run the other way. Potencies beside an inconclusive call are fits to weak or partial responses and may not hold up.
# Assay: qHTS of TDP-43 Inhibitors; note: nearly all actives have a fitted effect of over 50% in size; for growth rescue (activation): % of control where 0% means no effect
# Settings: TDP-43 expressing yeast growth rescue, BacTiter-Glo, 24 h; growth rescue (activation): at 46.1 µM (top of the series) unless noted
# Summary of the method: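 Readout is BacTiter-Glo luminescence of cell growth, so inhibitors register as activators. TDP-43-expressing yeast at OD600=0.02 in galactose medium, after raffinose pregrowth to mid-log, were incubated with compound for 24 hr at 30 deg C.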
# Potency is the fitted concentration of half-maximal effect; tags give direction and shape of the fitted curve.
SMILES,growth rescue (activation),Potency
Cc1ccccc1CNC(=O)c1cnc2sc(N3CCC(C)CC3)nn2c1=O,inactive: -2.38%,–
COCCCNC(=O)c1cc2cc(S(=O)(=O)N3CCCCC3)ccc2n1C,–,"inconclusive: 35.5 µM [activator, single point]"
Cc1cc([N+](=O)[O-])ccc1N,inactive: 0%,–
Cc1cc(C)c(NC(=O)CSc2ncc3c(n2)-c2cc(Cl)ccc2N(C)S3(=O)=O)c(C)c1,inactive: 9%,–
COc1ccc(OC(C)C(=O)Nc2cccc(F)c2)cc1 (stereo unspecified),–,"inconclusive: 7.08 µM [activator, full curve]"
O=C(CSc1ccc2ccccc2c1)N1CCN(c2ccc(O)cc2)CC1,–,"inconclusive: 31.6 µM [activator, single point]"
COc1cccc(NC(=S)NC(=O)Cc2ccccc2)c1,–,"inconclusive: 12.6 µM [activator, partial curve]"
COc1ccc(N2CCN(c3ncnc4c3cnn4C)CC2)cc1,–,"inconclusive: 22.4 µM [activator, single point]"
Cc1ccc(C(=O)Nc2cc(Cl)ccc2-n2cncn2)s1,–,"inconclusive: 11.2 µM [activator, partial curve]"
CCN(CC)C(=O)c1ccc2nc(-c3ccccc3)c(-c3ccccc3)nc2c1,–,"inconclusive: 25.1 µM [activator, partial curve]"
O=C1CS(=O)(=O)C2(C(=O)N(Cc3ccccc3Cl)c3ccccc32)N1c1ccc(F)cc1 (stereo unspecified),–,"inconclusive: 35.5 µM [activator, single point]"
CC1(C(=O)NS(=O)(=O)c2ccccc2C(F)(F)F)CCN1C(=O)CCC1CCCC1 (stereo unspecified),–,"inconclusive: 35.5 µM [activator, partial curve]"
O=C(NC(=S)N1CCN(c2ccc(F)cc2)CC1)C12CC3CC(CC(C3)C1)C2,–,"inconclusive: 3.16 µM [activator, single point]"
O=C(/C(=N/O)c1ccccc1)c1ccccc1,–,active: 22.4 µM
CC1CCc2sc(C(=O)N3CCN(c4ncccn4)CC3)cc2C1 (stereo unspecified),–,"inconclusive: 11.2 µM [activator, partial curve]"
CCS(=O)(=O)N1Cc2ccccc2CC1C(=O)N(C)CC(=O)Nc1ccc(F)c(F)c1F (stereo unspecified),inactive: -9.43%,–
Cc1cc(NC(=O)/C=C\C(=O)O)c([N+](=O)[O-])cc1C,–,active: 22.4 µM
Cc1ccccc1S(=O)(=O)Cc1ccc(C(=O)N2CCN(c3cccc(Cl)c3)CC2)o1,–,"inconclusive: 22.4 µM [activator, single point]"
Cc1cc(SCC(=O)NCc2ccc(Cl)cc2)nc(=O)[nH]1,inactive: -17.2%,–
Cc1nc(/C(N)=N/OC(=O)c2cccc(Cl)c2)c(C(F)(F)F)o1,–,active: 20 µM
COc1ccc(CC(=O)c2ccc(OC)c(OC)c2)cc1,–,"inconclusive: 12.6 µM [activator, partial curve]"
O=C(NC1CC1)c1sc2cc([N+](=O)[O-])ccc2c1Cl,–,"inconclusive: 5.01 µM [activator, full curve]"
Cc1ccc(CNc2nc3cc(-c4ccccc4)sc3c(=O)n2C)c(C)c1,–,"inconclusive: 11.2 µM [activator, partial curve, poor fit]"
CCN(CC)CCOC(=O)c1ccc(NC(=O)c2cc3c(=O)n(CC)c4ccccc4c3s2)cc1,inactive: -23.4%,–

SMILES,growth rescue (activation),Potency
Cc1cc(S(=O)(=O)N2CCN(Cc3noc(CCC(=O)N4CCCCC4)n3)CC2)ccc1F,inactive: -14.3%,–
COc1ccc2cc(C(=O)N3CCN(c4ccccc4OC)CC3)[nH]c2c1,–,"inconclusive: 22.4 µM [activator, single point]"
COc1cc(C(O)c2nc(-c3cncnc3)cs2)ccc1F (stereo unspecified),–,"inconclusive: 10 µM [activator, partial curve, poor fit]"
Cc1cc(NC(=O)CS(=O)(=O)c2cn(C)c3ccccc23)no1,–,"inconclusive: 0.501 µM [activator, full curve, poor fit]"
Cc1ccc(-c2nc(CS(=O)CC(=O)NCc3ccc(Cl)cc3)c(C)o2)cc1 (stereo unspecified),inactive: 0%,–
COc1cccc2sc(N(Cc3cccnc3)C(=O)c3ccc4c(c3)OCCO4)nc12,–,"inconclusive: 17.8 µM [activator, partial curve]"
CCOC(=O)c1ccc(NC(=O)CC2COc3ccccc3O2)cc1 (stereo unspecified),–,"inconclusive: 12.6 µM [activator, single point]"
COC(=O)/C=C1\OC(c2ccccc2)c2ccccc21 (stereo unspecified),inactive: 28.8%,–
NC(N)=NC(N)=Nc1ccc(O)cc1,inactive: 17.7%,–
Cc1c(C(=O)NCc2ccccn2)oc2ccc(Br)cc12,–,"inconclusive: 3.16 µM [activator, full curve]"
CCCN(Cc1ccccc1)C(=S)Nc1cccc(C(F)(F)F)c1,–,"inconclusive: 7.94 µM [activator, partial curve]"
CC(C)c1ccc(S(=O)(=O)N2CCC(n3c(C(F)(F)F)nc4cccnc43)CC2)cc1,inactive: 8.26%,–
COc1ccc(CC(=O)OCC(=O)c2c[nH]c3ccccc23)cc1,–,"inconclusive: 25.1 µM [activator, partial curve]"
Cc1cccc(CN2[C@H](COCc3ccccc3)C=CS2(=O)=O)c1,–,"inconclusive: 7.94 µM [activator, partial curve]"
CCOc1ccc(/C=C/C(=O)c2ccccc2)cc1OC,–,"inconclusive: 15.8 µM [activator, single point]"
CCOC(=O)C1=NOC2(C1)C(=O)Nc1ccc(OC(F)(F)F)cc12 (stereo unspecified),–,"inconclusive: 35.5 µM [activator, partial curve]"
Cc1ccc(C(=O)NCC(c2ccc3c(c2)OCO3)N2CCOCC2)cc1C (stereo unspecified),inactive: 15%,–
COc1ccc(CNc2nc(-c3ccco3)nn2S(=O)(=O)c2ccc(Cl)cc2)cc1OC,inactive: -2.21%,–
CCOC(=O)CC(NC(=O)CCc1c(C)nc2c(-c3ccccc3)c(C)nn2c1C)c1ccc(OC(C)C)cc1 (stereo unspecified),–,"inconclusive: 17.8 µM [activator, single point]"
CCN(CC)C(=O)c1cccc(-c2csc(C(O)c3ccc(F)c(OC)c3)n2)c1 (stereo unspecified),inactive: 21.2%,–
Cc1ccc(OC(C)C(=O)N2CCc3ccccc32)c([N+](=O)[O-])n1 (stereo unspecified),–,"inconclusive: 15.8 µM [activator, partial curve]"
COc1ccc(NC(=O)c2sc3nc4c(cc3c2N)CN(Cc2ccccc2)CC4)c(OC)c1,–,"inconclusive: 11.2 µM [activator, partial curve, poor fit]"
COc1ccc(NC(=O)Cn2c(SCc3ccc(C)cc3)nc3cccnc32)cc1OC,inactive: 1.13%,–
O=C1Nc2ccccc2Oc2cc(Oc3ccccc3)ccc21,–,"inconclusive: 4.47 µM [activator, full curve, poor fit]"

SMILES,growth rescue (activation),Potency
OCCC1CN(Cc2nc(-c3ccccc3)cs2)CCN1Cc1ccc(F)cc1 (stereo unspecified),inactive: 6.02% [at 9.22 µM],–
Clc1cccc(CON/C=N/c2ncnc3sccc23)c1,–,active: 3.55 µM
O=C(c1ccco1)c1nnn(Cc2ccccc2)c1-c1ccccc1,–,"inconclusive: 22.4 µM [activator, single point]"
O=C(Nc1cccc2ccccc12)/C(Cl)=C/c1ccccc1,–,active: 15.8 µM
COC(=O)Cn1cc(C(=O)c2cccs2)c2ccccc21,–,"inconclusive: 35.5 µM [activator, partial curve]"
C=CCNC(=S)NNc1nc(N2CCCC2)nc(N2CCCC2)n1,inactive: -6.9%,–
CCOc1ccc(NC(=O)CCCN2C(=S)NC(C)(C)CC2C)cc1 (stereo unspecified),inactive: 0.68%,–
CCc1cc2c(COC(=O)CCNS(=O)(=O)c3cccc(C(F)(F)F)c3)cc(=O)oc2cc1O,–,"inconclusive: 28.2 µM [activator, partial curve]"
CC(C)c1ccc(CC(=O)N2CCC2(C)C(=O)Nc2ccc3c(c2)OCCO3)cc1 (stereo unspecified),–,"inconclusive: 14.1 µM [activator, single point]"
CN1/C(=C/C(=O)C2CCC2)Sc2ccccc21,–,"inconclusive: 17.8 µM [activator, single point]"
CC(C)c1ccc(Nc2nc(NCc3ccco3)nc(N3CCOCC3)n2)cc1,–,active: 15.8 µM
O=S(=O)(Nc1ccc(F)cc1F)c1ccc(-n2cccn2)cc1,inactive: 16.2%,–
Cc1cccc(N2CCN(C(=O)C3CCN(c4ncnc5c4nc4n5CCCCC4)CC3)CC2)c1C,–,"inactive and inconclusive: 22.4 µM [activator, single point]"
COc1cc(C)ccc1OCc1cc(C(=O)N2C[C@H]3CC[C@H]2C3)no1,–,"inconclusive: 10 µM [activator, partial curve]"
CC(C)[C@H](NC(=O)OCc1ccccc1)C(=O)OCC(=O)c1ccccc1,–,"inconclusive: 35.5 µM [activator, partial curve]"
CC(C)(C)c1ccc(S(=O)(=O)N2CCSC2)cc1,–,"inconclusive: 31.6 µM [activator, single point]"
CC1CCc2sc(-c3n[nH]c(=S)o3)cc2C1 (stereo unspecified),–,"inconclusive: 3.98 µM [activator, partial curve]"
O=C(Nc1ccc(Cl)cc1F)c1ccccc1Br,–,"inconclusive: 12.6 µM [activator, partial curve]"
O=[N+]([O-])c1ccc(C(=S)N2CCN(c3ccc(F)cc3)CC2)cc1,–,"inconclusive: 0.891 µM [activator, full curve]"
O=C(C=Cc1ccc2c(c1)OCO2)C1CC1,–,"inconclusive: 20 µM [activator, partial curve]"
Oc1ccc(C2Nc3cccc4cccc(c34)N2)c(O)c1,inactive: 0.398%,–
Cc1cc2c(NCc3ccccc3)ncnc2s1,–,"inconclusive: 10 µM [activator, single point]"
Cc1ccc(NC(=O)C2CCN(c3cnccn3)CC2)cc1,inactive: 6.57%,–
